According to PubChem BioAssay AID686978 (National Center for Advancing Translational Sciences (NCATS), 2013):
In all, about 420,000 compounds went through this assay and about 64,000 (15%) were called active. The shares of active, inactive and inconclusive entries below differ from those in the screen. Calls follow the shape of the dose curve; as a rule, active = well fitted inhibition curve with a large enough effect; inconclusive = small, poorly fitted or top-dose-only effect; inactive = flat fitted curve, though single readings scatter. Potencies of inconclusive entries are left out as doubtful fits.

Assay: qHTS for Inhibitors of human tyrosyl-DNA phosphodiesterase 1 (TDP1): qHTS in cells in absence of CPT; also: nearly all actives have a fitted effect of over 55% in size
Settings: DT40 Tdp1-/- hTDP1 cells, no CPT, ATP luminescence, 48 h; activity change, negative = growth inhibition: at 46.2 µM (top of the series) unless noted
Procedure, shortened: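 DT40 Tdp1-/-;hTDP1 cells, no CPT (DMSO vehicle only), 400 cells/well; compounds pin-transferred; ≥48 hr, 37 °C; CellTiter-Glo 30 min RT dark, luminescence read.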
% is scaled to controls: 0 for no effect and ±100 for the full control effect; potency is read from the fitted curve at half-maximal effect; tags tell the direction and shape of the fitted curve.

Compound	Potency	activity change, negative = growth inhibition
CCc1nc2ccc(C(=O)NCc3ccccc3OC)cn2c1N(CC)Cc1cccc(Br)c1	inconclusive [inhibitor, single point]	
Nc1ncnc2c1ncn2[C@@H]1O[C@H](C(=O)N2CCC[C@@H]2C(=O)OCc2ccccc2)[C@@H](O)[C@H]1O	inconclusive [inhibitor, single point]	
Clc1cccc(-c2ccc(CNCCSc3nnnn3-c3ccccc3)o2)c1	inconclusive [inhibitor, single point]	
COc1ccc(-c2cc3ccc(O)cc3oc2=O)cc1		inactive: -12.5%
C=CCSc1ncc(C(=O)OCC)c(N)n1		inactive: 2.31%
COc1ccccc1NC(=O)c1sc2ncn(CC(=O)N3CCC(C)CC3)c(=O)c2c1C		inactive: 10.9%
CCC1C(c2ccccc2)=CCC(C(=O)O)C1C (configuration not stated)		inactive: 9.33%
CCOc1ccc(NC(=O)c2cnc3scc(C)n3c2=O)cc1	inconclusive [inhibitor, single point]	
COc1cccc(Cn2cnc(-c3ccccc3OC)c2C2CC2)c1	active: 20.6 µM	
Cc1cc(C)nc(SC(C)CNS(=O)(=O)c2ccccc2)n1 (configuration not stated)		inactive: 10.1%
Cc1ccc(NC(=O)CCSc2nnnn2-c2ccc3c(c2)OCO3)cc1C	inconclusive [inhibitor, single point]	
CC(=O)c1ccc(NC(=O)c2nc3ccccc3nc2N2CCCCC2)cc1	inconclusive [inhibitor, single point]	
COc1ccc2ccc(=O)oc2c1	inconclusive [inhibitor, partial curve]	
Cn1cc(C(=O)N2CCCC(Nc3ccc(F)cc3)C2)c2ccccc21 (configuration not stated)	inconclusive [inhibitor, single point]	
CCC(C)NC(=O)CSC1=Nc2ccccc2C2=NC(CCC(=O)NCc3ccco3)C(=O)N12 (configuration not stated)		inactive: -3%
COc1ccc(Nc2ncnc3sc(-c4ccccc4)cc23)cc1	inconclusive [inhibitor, single point]	
COc1cccc(CN(C)C(=O)c2cccc(S(=O)(=O)NCc3ccccc3)c2)c1OC	inconclusive [inhibitor, single point]	
COC(=O)c1sccc1N/N=C/c1ccc(OC)c(OC)c1OC	inconclusive [inhibitor, single point]	
O=C1c2ccccc2S(=O)(=O)N1CC(O)Cn1ccc2ccccc21 (configuration not stated)		inconclusive: -30.4% [inhibitor]
O=C(NCc1ccc(OC(F)(F)F)cc1)C1CCC(=O)N(C2CC2)C1 (configuration not stated)		inactive: -26.6%
O=C(c1ccccc1)N1CCN(CCc2ccncc2)CC1		inactive: -4.5%
Cc1c(C(=O)NCc2ccc(F)cc2)sc(=O)n1Cc1ccc(C(=O)c2ccccc2)cc1	inconclusive [inhibitor, single point]	
COc1ccc(NC2CCCN(C(=O)CCC(=O)c3ccc(F)cc3)C2)cc1 (configuration not stated)	inconclusive [inhibitor, single point]	
Cc1cnnn1-c1cccc([N+](=O)[O-])c1		inactive: -2.06%

Compound	Potency	activity change, negative = growth inhibition
O=C(CNC(=O)c1cc2c(n(-c3ccccc3)c1=O)CCCC2=O)c1ccccc1		inactive: -26.5%
Cc1ccc(C(=O)N2CCN=C2SCc2ccc([N+](=O)[O-])cc2)cc1C	inconclusive [inhibitor, single point]	
Cc1coc2c(C)c3oc(=O)c(CCC(=O)NCCc4ccccc4)c(C)c3cc12	active: 16.4 µM	
CCOCCCNC(=O)CCc1nnc2n(CCC(C)C)c(=O)c3ccccc3n12	inconclusive [inhibitor, partial curve]	
CCOc1ccc(CCNC(c2cccc(Cl)c2)c2nnc(-c3ccccc3)o2)cc1OCC (configuration not stated)	active: 25.9 µM	
Cc1nn(C)c(C(=O)NNC(=S)NCC(C)C)c1Cl	inconclusive [inhibitor, single point]	
Cc1ccc(N2N=C(c3ccc(F)cc3)CC2c2ccco2)cc1 (configuration not stated)	inconclusive [inhibitor, single point]	
O=C(O)c1ccccc1NS(=O)(=O)c1cccc2cccnc12		inactive: -15.2%
CCc1ccc(-c2[nH]c3c(c2-c2sc(C)c(C(=O)OC)c2O)c(=O)[nH]c(=O)n3C)cc1	active: 5.8 µM	
CC(C)C(=O)Nc1cccc(S(=O)(=O)c2cccc(NC(=O)C(C)C)c2)c1	inconclusive [inhibitor, partial curve, poor fit]	
N#Cc1c(NC(=O)CSc2ncnc3c2cnn3-c2ccccc2Cl)sc2c1CCCC2		inconclusive: -32.8% [inhibitor]
COc1ccc(C(=O)Nc2cc(Cl)ccc2N2CCOCC2)cc1S(=O)(=O)N1CCOCC1	inconclusive [inhibitor, single point]	
CCCCN(CCCC)S(=O)(=O)c1ccc2oc(C(=O)NCc3ccc(C)cc3)c(C)c2c1	active: 13 µM	
CCN/C=C(\C#N)S(=O)(=O)c1ccc(Br)cc1		inactive: 6.5%
CCCC1OC(c2cc3c(cc2Cl)OCO3)OCC1CC (configuration not stated)	inconclusive [inhibitor, single point]	
COc1ccc(-c2cc(C(=O)N3CCCC(C(F)(F)F)C3)c3ccccc3n2)cc1 (configuration not stated)	inconclusive [inhibitor, single point]	
COC(=O)CSC1=C(C#N)C(c2ccc(C(C)C)cc2)CC(=O)N1 (configuration not stated)	inconclusive [inhibitor, partial curve]	
CCn1c(COc2ccc(OC)cc2)nnc1SCC(=O)Nc1cc(OC)ccc1OC	inconclusive [inhibitor, single point]	
N#Cc1c(N)nc(N)nc1Nc1ccc(Br)cc1	active: 14.6 µM	
COC(=O)c1ccc2c(c1)N(Cc1ccc(F)cc1)C(=O)c1ccccc1S2		inactive: -12.7%
CCOC(=O)c1cc(C#N)c(N2CCCCC2)nc1-c1ccccc1	inconclusive [inhibitor, single point]	
O=C(CSc1nc2nc(-c3cccs3)cc(C(F)(F)F)c2c(=O)[nH]1)NCc1ccco1	inconclusive [inhibitor, partial curve, poor fit]	
CC1Cc2ccccc2N1CC(=O)NC(=O)NC(C)(C)C (configuration not stated)		inactive: 6.56%
Cc1nc2ccc(NC(=O)c3cccc(S(=O)(=O)N4CCOCC4)c3)cc2s1	active: 20.6 µM	

Compound	Potency	activity change, negative = growth inhibition
C=CCOn1c(=O)c(-c2ccc(C)cc2)[n+]([O-])c2ccccc21		inactive: -3.25%
COc1ccccc1CN1CC2(CCN(C(=O)c3cnccn3)CC2)C1		inactive: 0.245%
Cc1ccc(NS(=O)(=O)c2ccc(OCC(=O)NCC3CCCO3)cc2)cc1 (configuration not stated)	inconclusive [inhibitor, single point]	
COc1ccc2c(c1)sc1ncc(C(=O)NCc3ccc(OC(C)C)cc3)c(=O)n12		inactive: -26.4%
CCCCn1ccc(=O)c2c(C(F)(F)F)nccc21	inconclusive [inhibitor, partial curve]	
O=C(NCc1cccnc1)C1CCCN1S(=O)(=O)c1ccc(Cl)cc1 (configuration not stated)		inactive: 1.74%
O=C(CCCN1CCN(c2ccc(F)cc2)CC1)NC1c2ccccc2CSc2ccccc21 (configuration not stated)	inconclusive [inhibitor, single point]	
COc1ccc(OC)c(C2=NOC(C(=O)NCC3CCCO3)C2)c1 (configuration not stated)		inactive: -3.42%
O=S(=O)(c1ccc(F)cc1)N1CC2CCCN2c2ccc(C(F)(F)F)cc21 (configuration not stated)	inconclusive [inhibitor, single point]	
Cc1cc(C)n(-c2cccc(CN3CCC(CO)(Cc4ccccc4)CC3)c2)n1	active: 23.1 µM	
CCN1/C(=C/c2cccc[n+]2C)Sc2ccc(OC)cc21	active: 2.31 µM	
Cc1cc(=O)[nH]c(Nc2cccc(Br)c2)n1	inconclusive [inhibitor, single point]	
CC(C)c1ccc(NC(=O)Nc2nc(C(N)C3CCCCC3)cs2)cc1 (configuration not stated)	inconclusive [inhibitor, single point]	
C[C@H]1CCC(=O)N([C@H](CN=[N+]=[N-])Cc2ccccc2)CC1	inconclusive [inhibitor, single point]	
CCOc1ccc(CCNC(=O)c2cccc(C#N)c2)cc1OCC	inconclusive [inhibitor, partial curve]	
COc1cc2c(cc1O)C(CSC)Cc1cc3c(cc1N(C)CC2)OCO3 (configuration not stated)	inconclusive [inhibitor, single point]	
O=C(Nc1ccc(Br)cc1Br)Nc1cccc2[nH]c([C@@H]3O[C@H](CO)[C@@H](O)[C@H](O)[C@H]3O)nc12		inactive: 18.8%
Cc1c(Cl)cccc1Nc1nc(NCCO)c2ccccc2n1	inconclusive [inhibitor, single point]	
CCOc1ccc(-n2c(C)c(C(=O)OC)c3cc(O)ccc32)cc1	inconclusive [inhibitor, single point]	
COc1cccc(CNc2nnnn2C)c1		inactive: -4.98%
COc1ccc(NC(=O)N(C)[C@H]2C[C@H]3c4[nH]c5ccccc5c4CCN3C(=O)[C@H]2CO)cc1	inconclusive [inhibitor, single point]	
Cc1c(C)c2c(OCC(=O)N3CCC(C(N)=O)CC3)cc3c(c2oc1=O)CCC(C)(C)O3	inconclusive [inhibitor, single point]	
CCCOCCOC(=O)c1[nH]c2c(c1C)C(=O)CC(c1cc(OC)ccc1OC)C2 (configuration not stated)	active: 5.8 µM	
COc1ccc(/C=N/NC(=O)c2ccncc2)cc1CN1CCN(c2ccc(F)cc2)CC1	inconclusive [inhibitor, single point]	
